{
  "source": "PubChem BioAssay (Tox21)",
  "note": "Several values for one entry are separate records, joined by “and”; a condition that tells them apart may be missing. Identical values can stand only once. The shares of active, inactive and inconclusive entries below differ from those in the screen. Potencies beside an inconclusive call are fits to weak or partial responses and may not hold up. Activity calls are given as the source filed them. Unless noted, calls come from the whole dose curve. % is set by controls: 0 for no effect and ±100 for the full control effect; potency is the fitted concentration of half-maximal effect; tags give direction and shape of the fitted curve or compound fluorescence and quenching.",
  "data": [
    {"assay": "qHTS assay to identify small molecule agonists of the progesterone receptor (PR) signaling pathway - cell viability counter screen (AID 1346799); note: nearly all actives have a fitted effect of over 45% in size", "settings": "PR-UAS-bla HEK293T viability, CellTiter-Glo luminescence, 16 h; series mostly up to 92.4 µM; activity change, negative = cytotoxicity: at the top concentration", "outline": "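HEK293T PR-UAS-bla, 3,000 cells/well, 2% charcoal-stripped FBS; 6 h settle, compound 16 h at 37C/5% CO2; LiveBLAzer 2 h RT, then CellTiter-Glo 30 min RT, luminescence read.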", "values": [
      {"smiles": "Nc1nc2ncc(CNc3ccc(C(=O)N[C@@H](CCC(=O)O)C(=O)O)cc3)nc2c(=O)[nH]1", "Potency": "inconclusive: 10.6 µM [rising, single point]"},
      {"smiles": "CCC(Cl)CC(Cl)C(Cl)C(Cl)C(Cl)C(C)Cl", "note": "(stereo not drawn)", "activity change, negative = cytotoxicity": "inactive: 9.92% [at 19 µM]"},
      {"smiles": "COc1ccc(Cl)cc1C(=O)NCCc1ccc(S(=O)(=O)NC(=O)NC2CCCCC2)cc1", "Potency": "inconclusive: 24.3 µM [cytotoxic, partial curve] and inactive"},
      {"smiles": "COC(C)CCO", "note": "(stereo not drawn)", "activity change, negative = cytotoxicity": "inactive: -2.6%"}
    ]},
    {"assay": "qHTS assay to identify small molecule antagonists of the TGF-beta/Smad signaling pathway - cell viability counter screen (AID 1346824; active = well fitted cell-killing curve with a large enough effect in the repeat runs; inconclusive = weak or mixed curves; note: nearly all actives have a fitted effect of over 50% in size)", "settings": "SBE-bla HEK293T viability, CellTiter-Glo luminescence; series mostly up to 76.8 µM; viability change, negative = cytotoxic: at the top concentration", "outline": "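SBE-bla HEK 293T cells, incubated overnight, then compound plus 0.25 ng/mL TGF-beta1 (stock added) for 5 hr at 37 C. Viability was read in the same wells by CellTiter-Glo luminescence after 30 min at room temperature.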", "values": [
      {"smiles": "O=C1C(=O)c2ccccc2C(O)=C1C1CCC(c2ccc(Cl)cc2)CC1", "note": "(stereo not drawn)", "Potency": "inconclusive: 15.1 µM [cytotoxic, single point]"},
      {"smiles": "COC(=O)C1=C(C)NC(C)=C(C(=O)OCCN2CCN(C(c3ccccc3)c3ccccc3)CC2)C1c1cccc([N+](=O)[O-])c1", "note": "(stereo not drawn)", "viability change, negative = cytotoxic": "inactive: 0.64% [at 35.3 µM]"},
      {"smiles": "CC(C)(CO)[C@@H](O)C(=O)NCCCO", "viability change, negative = cytotoxic": "inactive: 13.6% [at 35.3 µM]"},
      {"smiles": "OCCNCCO", "Potency": "inconclusive: 13.8 µM [cytotoxic, full curve]"}
    ]},
    {"assay": "qHTS assay to identify small molecule agonists of the TGF-beta/Smad signaling pathway (AID 1346859; active = well fitted activation curve with a large enough effect in the signal ratio in the repeat runs, not every such curve was filed as active; inconclusive = weak or mixed curves; the % refers to the signal ratio)", "settings": "SBE-bla HEK293T, TGF-beta/Smad beta-lactamase reporter, 5 h; activation: at 76.8 µM (top of the series)", "outline": "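Read-out: fluorescence at 460 and 530 nm (405 nm excitation) after a 2 hr room-temperature incubation with beta-lactamase FRET substrate. SBE-bla HEK 293T cells had been treated with test compounds for 5 hr at 37 C.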", "values": [
      {"smiles": "CCCC/C=C/C=C\\C=O", "Potency": "inconclusive: 61.6 µM [rising, single point]"},
      {"smiles": "CC[C@H]1OC(=O)[C@H](C)[C@@H](O[C@H]2C[C@@](C)(OC)[C@@H](O)[C@H](C)O2)[C@H](C)[C@@H](O[C@@H]2O[C@H](C)C[C@H](N(C)C)[C@H]2O)[C@](C)(O)C[C@@H](C)CN(C)[C@H](C)[C@@H](O)[C@]1(C)O", "activation": "inactive: -2.62% [at 35.3 µM]"},
      {"smiles": "O=C(O)c1cc(C(=O)O)cc(S(=O)(=O)O)c1", "Potency": "inactive"},
      {"smiles": "Cc1cc(-c2ccc(N=Nc3cc(S(=O)(=O)O)c4ccccc4c3N)c(C)c2)ccc1N=Nc1cc(S(=O)(=O)O)c2ccccc2c1N", "Potency": "inconclusive: 27.7 µM [rising, partial curve, poor fit]"},
      {"smiles": "CSCC[C@H](NC(=O)[C@H](Cc1c[nH]c2ccccc12)NC(=O)CCNC(=O)OC(C)(C)C)C(=O)N[C@@H](CC(=O)O)C(=O)N[C@@H](Cc1ccccc1)C(N)=O", "activation": "inactive: -2.16% [at 35.3 µM]"},
      {"smiles": "CC(C(=O)O)c1ccc2c(c1)[nH]c1ccc(Cl)cc12", "note": "(stereo not drawn)", "Potency": "inconclusive: 16.9 µM [rising, partial curve]"},
      {"smiles": "CC1=C(/C=C/C(C)=C/C=C/C(C)=C/CO)C(C)(C)CCC1", "Potency": "inconclusive: 55.6 µM [rising, partial curve, poor fit]"},
      {"smiles": "O=C1c2ccccc2C(=O)c2c(O)c(O)cc(O)c21", "activation": "inactive: -8.03%"},
      {"smiles": "OC[C@H]1O[C@H](O[C@H]2O[C@H](CO)[C@@H](O)[C@H](O)[C@H]2O)[C@H](O)[C@@H](O)[C@@H]1O", "activation": "inactive: -1.63%"},
      {"smiles": "C=C[Si](OCCOC)(OCCOC)OCCOC", "Potency": "inactive"},
      {"smiles": "CC(=O)OCC1=C(C(=O)O)N2C(=O)[C@@H](NC(=O)Cc3cccs3)[C@H]2SC1", "activation": "inactive: 1.17% [at 35.3 µM]"},
      {"smiles": "OCCNCCO", "Potency": "inconclusive: 19.5 µM [rising, partial curve, poor fit]"},
      {"smiles": "COC(=O)Nc1nc2ccc(Sc3ccccc3)cc2[nH]1", "Potency": "inactive"},
      {"smiles": "CCC(Cl)CC(Cl)C(Cl)C(Cl)C(Cl)C(C)Cl", "note": "(stereo not drawn)", "Potency": "inconclusive: 3.78 µM [rising, partial curve]"},
      {"smiles": "COc1ccc(Cl)cc1C(=O)NCCc1ccc(S(=O)(=O)NC(=O)NC2CCCCC2)cc1", "Potency": "inconclusive: 49 µM [rising, partial curve] and inconclusive: 10.7 µM [rising, partial curve]"}
    ]}
  ]
}
